assay: soluble on expression in E. coli; label from the status in PepcDB or PDB records

| Sequence | soluble on expression in E. coli |
| --- | --- |
| MGSDKIHHHHHHAGGHKNLPAKGDLHIPVFENVNVRFSPDTYPDNYNEADGTGVYHLVNGRIILKKITLPEYKRNVSVSLKVTLASNGDRWDKSGSCFVLPKSSAINLLTIARDGMKFPSVDSLKLEKMVGIVPGKDYLPTVELMRFMTPFGIGHYSNNNDSLSSKRRPVYIPKWESNVTWQQDITDLYPLLEGEAYVGIYIDTWTSEGYLVNADIDVKESRLACDVLPKRHVEPLMNTVYYMGQSYPDIFARRDVSTDFTVPKGAKNIRLKYIVTGHGGHSGGDEFVQKRNIISVDGKEVLNFIPWRDDCASFRRFNPATGVWLIKRLASYIGEKGYTEKEVEEPLASSDLSRSNWCPGSDVVPEEAVIGTLAPGKHTFTVSIPEAQAVDGNKLNHWLVSAYLVWEE | not soluble |
| MKDIDTLISNNALWSKMLVEEDPGFFEKLAQAQKPRFLWIGCSDSRVPAERLTGLEPGELFVHRNVANLVIHTDLNCLSVVQYAVDVLEVEHIIICGHSGCGGIKAAVENPELGLINNWLLHIRDIWLKHSSLLGKMPEEQRLDALYELNVMEQVYNLGHSTIMQSAWKRGQNVTIHGWAYSINDGLLRDLDVTATNRETLENGYHKGISALSLKYIPHQ | not soluble |
| MRLIPLKAAAQVGKWAAAHIVKRINEFQPTAERPFVLGLPTGGTPLATYKALIEMHKAGEVSFKHVVTFNMDEYVGLAADHPESYRSFMYNNFFNHIDIQEENINLLNGNTDDHEAECKRYEDKIKSYGKINLFMGGVGNDGHIAFNEPASSLSSRTRIKTLTEDTRIANSRFFDGDINQVPKYALTIGVGTLLDAQEIMILVTGHNKALALQAAVEGSVNHLWTVSALQLHPKAVIVCDEPSTQELKVKTVKYFTELEAKNIVGF | soluble |
| MSALKKSFIKRKLAKKQKQNRPMPQWVRMKTGNTMKYNAKRRHWRRTKLKL | soluble |
| MTKLKCKSLRGEKKDALQKKLDEQKTELATLRVSKVTGGAASKLSKIRVVRKNIARLLTVINQTQKQELRKFYADHKYKPIDLRLKKTRAIRRRLTAHELSLRSAKQQAKSRNQAVRKFAVKA | soluble |
